Measurements as given in the supplement of paper PMC12217912.
Some of the results follow. Sequences were assembled here from the parent chain. Inactive controls read about 0.05.

B1: TEV protease; numbered along this chain (parent)
chain: MGESLFKGPRDYNPISSSICHLTNESDGHTTSLYGIGFGPFIITNKHLFRRNNGTLVVQSLHGVFKVKDTTTLQQHLVDGRDMIIIRMPKDFPPFPQKLKFREPQREERICLVTTNFQTKSMSSMVSDTSCTFPSGDGIFWKHWIQTKDGQCGSPLVSTRDGFIVGIHSASNFTNTNNYFTSVPKNFMELLTNQEAQQWVSGWRLNADSVLWGGHKVFMVKPEEPFQPVKEATQL

Variants of: B1
Assay: raw area under fraction-flipped curve 0-4 h after induction (AUC4h, not background-subtracted), DNA-recorder readout of cleavage of the substrate (dimensionless); higher = more cleavage of the substrate by the protease variant
Settings: temperature: 34 °C; time window: 0-4 h after rhamnose induction
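Note: Bxb1 expression induced with 0.2% (w/v) L-rhamnose at OD600 near 0.5, cultures sampled hourly, flipped fraction per protease–substrate barcode pair counted by paired-end Illumina sequencing.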

Q118E
area with substrate ENLYDQS: 0.0598
area with substrate ENLYIQS: 0.129
area with substrate ENLYKQS: 0.0597
area with substrate ENLYNQS: 0.0504
area with substrate ENLYPQS: 0.0807
area with substrate ENLYRQS: 0.077
area with substrate ENLYSQS: 0.0716
area with substrate ENLYVQS: 0.14

D149E
area with substrate ENLYDQS: 0.066
area with substrate ENLYEQS: 0.0699
area with substrate ENLYGQS: 0.0689
area with substrate ENLYHQS: 0.0576
area with substrate ENLYIQS: 0.111
area with substrate ENLYKQS: 0.0521
area with substrate ENLYLQS: 0.0878
area with substrate ENLYNQS: 0.0664
area with substrate ENLYPQS: 0.0861
area with substrate ENLYSQS: 0.0667
area with substrate ENLYVQS: 0.0743
area with substrate ENLYWQS: 0.0808

G162Y
area with substrate ENLYDQS: 0.0432
area with substrate ENLYEQS: 0.0965
area with substrate ENLYGQS: 0.0684
area with substrate ENLYHQS: 0.0697
area with substrate ENLYIQS: 0.106
area with substrate ENLYKQS: 0.0588
area with substrate ENLYNQS: 0.0714
area with substrate ENLYPQS: 0.0733
area with substrate ENLYQQS: 0.0773
area with substrate ENLYRQS: 0.0644
area with substrate ENLYTQS: 0.0667
area with substrate ENLYVQS: 0.0722

K98H
area with substrate ENLYDQS: 0.0608
area with substrate ENLYEQS: 0.0593
area with substrate ENLYGQS: 0.0597
area with substrate ENLYHQS: 0.0681
area with substrate ENLYIQS: 0.114
area with substrate ENLYKQS: 0.0654
area with substrate ENLYLQS: 0.112
area with substrate ENLYMQS: 0.101
area with substrate ENLYNQS: 0.0664
area with substrate ENLYPQS: 0.0732
area with substrate ENLYQQS: 0.0567
area with substrate ENLYSQS: 0.0425
area with substrate ENLYVQS: 0.129

R102S
area with substrate ENLYDQS: 0.0546
area with substrate ENLYEQS: 0.0481
area with substrate ENLYGQS: 0.0462
area with substrate ENLYHQS: 0.0477
area with substrate ENLYIQS: 0.0637
area with substrate ENLYKQS: 0.0492
area with substrate ENLYMQS: 0.0537
area with substrate ENLYNQS: 0.0571
area with substrate ENLYPQS: 0.0461
area with substrate ENLYQQS: 0.056
area with substrate ENLYRQS: 0.044
area with substrate ENLYSQS: 0.0614
area with substrate ENLYVQS: 0.0508
area with substrate ENLYWQS: 0.0571

S135E
area with substrate ENLYDQS: 0.0657
area with substrate ENLYGQS: 0.0743
area with substrate ENLYHQS: 0.0546
area with substrate ENLYNQS: 0.0693
area with substrate ENLYPQS: 0.0455
area with substrate ENLYVQS: 0.0817
area with substrate ENLYWQS: 0.0809
area with substrate ENLYYQS: 0.0619

V78Q
area with substrate ENLYDQS: 0.0463
area with substrate ENLYEQS: 0.0568
area with substrate ENLYGQS: 0.0505
area with substrate ENLYMQS: 0.074
area with substrate ENLYRQS: 0.0679

V67E
area with substrate ENLYDQS: 0.0462
area with substrate ENLYEQS: 0.0549
area with substrate ENLYPQS: 0.0738
area with substrate ENLYRQS: 0.0399
area with substrate ENLYTQS: 0.0801

Q59E
area with substrate ENLYDQS: 0.0634
area with substrate ENLYEQS: 0.0866
area with substrate ENLYGQS: 0.0661
area with substrate ENLYHQS: 0.0681
area with substrate ENLYKQS: 0.0577
area with substrate ENLYLQS: 0.0678
area with substrate ENLYNQS: 0.0644
area with substrate ENLYPQS: 0.0851
area with substrate ENLYQQS: 0.0402
area with substrate ENLYRQS: 0.08
area with substrate ENLYSQS: 0.0739
area with substrate ENLYTQS: 0.0722
area with substrate ENLYVQS: 0.101
area with substrate ENLYWQS: 0.0668

D161N
area with substrate ENLYDQS: 0.0602
area with substrate ENLYEQS: 0.0723
area with substrate ENLYHQS: 0.0594
area with substrate ENLYIQS: 0.0941
area with substrate ENLYKQS: 0.0452
area with substrate ENLYLQS: 0.0508
area with substrate ENLYMQS: 0.0594
area with substrate ENLYNQS: 0.0356
area with substrate ENLYPQS: 0.0676
area with substrate ENLYQQS: 0.0645
area with substrate ENLYRQS: 0.0429
area with substrate ENLYSQS: 0.0623
area with substrate ENLYVQS: 0.1
area with substrate ENLYWQS: 0.066
area with substrate ENLYYQS: 0.062

F101G
area with substrate ENLYDQS: 0.0471
area with substrate ENLYEQS: 0.0507
area with substrate ENLYGQS: 0.0543
area with substrate ENLYHQS: 0.0465
area with substrate ENLYNQS: 0.0232
area with substrate ENLYVQS: 0.0549
area with substrate ENLYYQS: 0.0454

H62E
area with substrate ENLYDQS: 0.0684
area with substrate ENLYEQS: 0.0696
area with substrate ENLYGQS: 0.0584
area with substrate ENLYHQS: 0.0652
area with substrate ENLYKQS: 0.0505
area with substrate ENLYLQS: 0.0558
area with substrate ENLYMQS: 0.0776
area with substrate ENLYRQS: 0.0673
area with substrate ENLYTQS: 0.0974
area with substrate ENLYVQS: 0.132
area with substrate ENLYWQS: 0.0761
area with substrate ENLYYQS: 0.0537

Q151K
area with substrate ENLYDQS: 0.0463
area with substrate ENLYEQS: 0.0724
area with substrate ENLYMQS: 0.0645
area with substrate ENLYNQS: 0.0599
area with substrate ENLYPQS: 0.0589
area with substrate ENLYRQS: 0.0614
area with substrate ENLYWQS: 0.0505

I167M
area with substrate ENLYDQS: 0.0566
area with substrate ENLYEQS: 0.0539
area with substrate ENLYGQS: 0.0633
area with substrate ENLYHQS: 0.0409
area with substrate ENLYIQS: 0.0962
area with substrate ENLYKQS: 0.0772
area with substrate ENLYRQS: 0.0552
area with substrate ENLYTQS: 0.0808
area with substrate ENLYWQS: 0.102

K100P
area with substrate ENLYDQS: 0.0528
area with substrate ENLYEQS: 0.0781
area with substrate ENLYGQS: 0.0641
area with substrate ENLYIQS: 0.124
area with substrate ENLYKQS: 0.101
area with substrate ENLYMQS: 0.0995
area with substrate ENLYNQS: 0.0807
area with substrate ENLYPQS: 0.0745
area with substrate ENLYRQS: 0.0534
area with substrate ENLYSQS: 0.0704
area with substrate ENLYTQS: 0.0756
area with substrate ENLYVQS: 0.101
area with substrate ENLYWQS: 0.0617
area with substrate ENLYYQS: 0.0683

L235W
area with substrate ENLYDQS: 0.0354
area with substrate ENLYEQS: 0.0883
area with substrate ENLYGQS: 0.0678
area with substrate ENLYHQS: 0.0715
area with substrate ENLYKQS: 0.0841
area with substrate ENLYNQS: 0.073
area with substrate ENLYPQS: 0.0818
area with substrate ENLYRQS: 0.0517
area with substrate ENLYSQS: 0.0607
area with substrate ENLYVQS: 0.106
